This note sets out measurements from article PMC6919601, “Identification of Plasmodium dipeptidyl aminopeptidase allosteric inhibitors by high throughput screening” (PLoS ONE, 2019).

The whole screen tested about 110,000 compounds, of which about 230 (0.21%) showed an effect of 50% or more. This is one part of the list.
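Also: 30 min substrate incubation versus DMSO and 10 µM JCP410 controls.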

Sequence of DPAP1 (Q8IIJ9 whole entry, looked up): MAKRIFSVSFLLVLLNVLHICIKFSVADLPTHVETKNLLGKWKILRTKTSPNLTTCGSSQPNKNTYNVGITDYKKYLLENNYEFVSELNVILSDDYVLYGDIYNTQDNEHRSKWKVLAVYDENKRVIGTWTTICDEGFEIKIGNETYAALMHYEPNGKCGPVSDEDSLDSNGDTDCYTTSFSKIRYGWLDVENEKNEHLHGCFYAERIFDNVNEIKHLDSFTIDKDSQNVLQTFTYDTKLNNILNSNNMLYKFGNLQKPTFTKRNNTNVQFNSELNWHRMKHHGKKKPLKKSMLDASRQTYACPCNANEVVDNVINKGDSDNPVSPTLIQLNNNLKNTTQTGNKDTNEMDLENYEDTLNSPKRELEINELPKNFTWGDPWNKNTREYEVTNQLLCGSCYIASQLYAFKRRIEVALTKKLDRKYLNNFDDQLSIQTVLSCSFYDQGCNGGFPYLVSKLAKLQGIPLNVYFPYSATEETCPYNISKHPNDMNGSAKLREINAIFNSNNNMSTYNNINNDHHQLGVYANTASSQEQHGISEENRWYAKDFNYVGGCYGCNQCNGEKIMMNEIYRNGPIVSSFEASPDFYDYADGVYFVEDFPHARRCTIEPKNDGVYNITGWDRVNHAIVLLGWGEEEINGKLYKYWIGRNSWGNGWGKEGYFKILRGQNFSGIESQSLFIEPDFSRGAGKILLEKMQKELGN

The assay addresses DPAP1 (Plasmodium falciparum, UniProt Q8IIJ9). The assay is described as follows: primary screen, percent inhibition; read by cleavage of a fluorogenic dipeptide substrate; higher = more effect of the substance. On the set-up: species or system P. falciparum D10 trophozoite lysates; single well.
In the case of `Cc1cc(C)cc(NC(=O)c2ccc([N+](=O)[O-])cc2Cl)c1`, the “% Inhibition @ 10 uM” value is on record as -3.04%.

Regarding `COc1cc(CN2CCCC(O)C2)cc(Br)c1O` (centres unmarked), the “% Inhibition @ 10 uM” value turned out to be 3.01%. With `CN(CC(=O)NCc1cccnc1)S(=O)(=O)c1ccc2[nH]c3c(c2c1)CCCC3`, the “% Inhibition @ 10 uM” value is -7.35%. In the case of `CC1CCCCC1Nc1nc2ccc(Cl)cc2n2cnnc12` (centres unmarked) it was 5.84%. For `CCOc1cc(C2c3c(oc4ccccc4c3=O)C(=O)N2c2ccc(C)cn2)ccc1O` (centres unmarked), the “% Inhibition @ 10 uM” value is 3.72%. For the compound `CCC(C)NC(=O)C1c2cc(OC)c(OC)cc2C(=O)N(C)C1c1ccc(OC)c(OC)c1` (centres unmarked), the “% Inhibition @ 10 uM” value was 6.57%. The result for `CCOCc1c(C)cc(C)c(/C=C(\C#N)C(=O)OCC)c1C` reads 0.968%; that for `Cc1ccc2nc(N(CCCN(C)C)C(=O)Cc3ccccc3)sc2c1`, 0.233%; that for `CC(=O)Nc1ccc2[nH]c(-c3cccn3C)nc2c1`, -8.36%. In the case of `CCOc1ccc(C2CSc3nc4ccccc4n3C2=O)cc1` (centres unmarked) it was 0.275%; in that of `FC(F)(F)c1cccc(N2CCN(Cc3ccc4c(c3)OCO4)CC2)c1`, 3.1%.

As to `CN(C)c1ccc(C2CC(=O)NC3=C2C(=O)CC(C)(C)C3)cc1` (centres unmarked), the “% Inhibition @ 10 uM” value was -6.88%. For `COc1ccc(CN2CCN(Cc3ccco3)CC2)cc1Br`, the “% Inhibition @ 10 uM” value was 20.2%. As for `CCc1ccc2oc(-c3cccc(NC(C)=O)c3)nc2c1`, the “% Inhibition @ 10 uM” value is -1.96%. In the case of `Cc1c(C(N)=O)c(N)c(C(=O)c2ccccc2)n1-c1ccccc1` it was -2.42%; in that of `COc1cc(CNC23CC4CC(CC(C4)C2)C3)ccc1OCC(=O)NC(C)(C)C`, -1.43%.

For the compound `O=C(NCCOC12CC3CC(CC(C3)C1)C2)c1cc2c(s1)-c1ccccc1S(=O)(=O)C2`, the “% Inhibition @ 10 uM” value is -4.24%. Regarding `CCC(=O)Nc1sc2c(c1C#N)CCCCC2`, the “% Inhibition @ 10 uM” value is -4.43%. The result for `Oc1cc(-c2ccccc2Cl)c2c(n1)CCC2` reads -0.256%. On to `Cc1nn(C(=O)COc2ccc(Cl)cc2Cl)c(N)c1-c1ccccc1`, for which the “% Inhibition @ 10 uM” value was 4.32%.

For the compound `COC(=O)CCCc1c2ccccc2nc2ccccc12`, the “% Inhibition @ 10 uM” value came out at 0.989%. Take `CCc1ccc(C2C3=C(O)CCCC3=NC(C)=C2C(=O)OC(C)C)cc1` (centres unmarked): the “% Inhibition @ 10 uM” value is listed as 4.1%. `C=CCNC(=O)CN(c1ccc(C23C[C@H]4C[C@@H](C2)C[C@@H](C3)C4)cc1)S(C)(=O)=O`: the “% Inhibition @ 10 uM” value is reported as 1.19%. Regarding `Cc1ccccc1/N=C1/SCC(=O)N1Cc1ccccc1`, the “% Inhibition @ 10 uM” value is on record as -7.15%. In the case of `CC(=O)Nc1c(C)ccc(C(=O)O)c1[N+](=O)[O-]` it was -3.8%; in that of `O=C(CN1Cc2ccccc2C1=O)N1CCN(C(=O)c2ccco2)CC1`, -4.38%. In the case of `COc1cc2nc(S)nc(NCCc3c[nH]c4ccccc34)c2cc1OC` it was 4.01%; in that of `O=C1c2ccccc2NC(c2ccccc2F)N1c1ccccc1` (centres unmarked), 4.98%; in that of `CC(C)c1nnc(NC(=O)c2nc(SCc3ccccc3F)ncc2Cl)s1`, -0.946%. With `CCOc1ccccc1NC(=O)C1CC1(c1ccccc1)c1ccccc1` (centres unmarked), the “% Inhibition @ 10 uM” value is -5.36%. In the case of `CC1CC(C)CN(C(=O)Cn2c3ccccc3c3cnnc(O)c32)C1` (centres unmarked), the “% Inhibition @ 10 uM” value is given as -0.281%. In the case of `N#Cc1ccccc1OCC(=O)O` it was 3.29%; in that of `O=C(O)c1ccccc1OCC(O)Cn1cnc2ccccc21` (centres unmarked), -1.84%. `CCCCc1c(O)nc2c(C)cccc2c1C`: the “% Inhibition @ 10 uM” value was -4.58%. Turning to `Cc1ccc(C(=O)Nc2cc(C(F)(F)F)ccc2F)s1`, the “% Inhibition @ 10 uM” value was found to be 4.77%. With `CC1(C)C(C=C(Cl)Cl)C1C(=O)NCc1ccc2c(c1)OCO2` (centres unmarked), the “% Inhibition @ 10 uM” value was determined as 0.983%. Take `Cc1nnc2ccc(N3CCN(C(=O)c4ccccc4)CC3)nn12`: the “% Inhibition @ 10 uM” value was -3.08%. The result for `COc1ccc(S(=O)(=O)N2CCN(Cc3ccc4c(c3)OCO4)CC2)c2ccccc12` reads -1.84%; that for `CCOc1cc(C(=O)Nc2nn3c(-c4ccco4)nnc3s2)cc(OCC)c1OCC`, 1.39%. Turning to `COc1cccc2c1Oc1ncccc1NC2`, the “% Inhibition @ 10 uM” value amounted to 1.63%. For `COc1ccc(C(=O)c2cnc3cc4c(cc3c2S(=O)(=O)c2ccc(F)cc2)OCO4)cc1`, the “% Inhibition @ 10 uM” value was -9.67%.

Consider `COc1ccc(NC(=O)CCC(=O)c2ccc(C)c(C)c2)cc1`, for which the “% Inhibition @ 10 uM” value is recorded as -5.26%. With `NC(=O)c1cnn2c(C(F)(F)F)cc(-c3cccs3)nc12`, the “% Inhibition @ 10 uM” value is -0.711%. For the compound `CCOc1ccc(C2C=C(c3ccc(C(C)C)cc3)Nc3ncnn32)cc1` (centres unmarked), the “% Inhibition @ 10 uM” value is recorded as -1.48%. Take `COc1ccc(-c2cc(-c3ccc(C)cc3)nc(OC(C)C)n2)cc1`: the “% Inhibition @ 10 uM” value was 0.219%.

For the compound `COc1ccc(-c2ccc(CCC(=O)O)n2-c2ccc(C(N)=O)cc2)cc1`, the “% Inhibition @ 10 uM” value worked out at 2.21%. As for `CN(C)CC1CSCCC1(O)c1ccccc1Cl` (centres unmarked), the “% Inhibition @ 10 uM” value is reported as -6.37%. Consider `COc1cc(C2SC(NC(C)=O)=NN2C(C)=O)cc(OC)c1OC` (centres unmarked), for which the “% Inhibition @ 10 uM” value is -2.24%. The result for `CCCCN(CCNC(=O)NCc1noc2ccccc12)Cc1ccco1` reads -1.11%. `O=C(O)CCC(=O)Nc1nc(-c2ccc(Cl)c(Cl)c2)cs1`: the “% Inhibition @ 10 uM” value is -3.45%.
